“And” between values parts separate entries of the source, which are not always exact repeats. Equal values may be shown once. Screen size: about 420,000 compounds; about 50,000 (12%) were called active. This list was built around the results that the source calls inconclusive (neither active nor inactive); the mix of calls is not that of the screen. The call rests on the fitted dose curve; in most records, active means well fitted inhibition curve with a large enough effect; inconclusive means small, poorly fitted or top-dose-only effect; inactive means flat fitted curve, though single readings scatter. Potencies of inconclusive entries are doubtful fits and often do not repeat.
experiment: qHTS for Inhibitors of human tyrosyl-DNA phosphodiesterase 1 (TDP1): qHTS in cells in presence of CPT; conditions: chicken DT40 Tdp1-/-;hTDP1 cells + 20 nM CPT, ATP luminescence, 48 h; activity change, negative = growth inhibition: at 46.2 µM (top of the series); further: nearly all actives have a fitted effect of over 55% in size
How it was run: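 Chicken DT40 Tdp1-/- cells stably complemented with human TDP1 were seeded at 400 cells/well in medium containing 20 nM camptothecin, exposed to pin-transferred compounds, and grown at 37 °C for at least 48 hr. Viability was read as ATP luminescence.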
On the % scale 0 is the no-effect control and ±100 the full control effect; potency means the concentration at half of the fitted maximal effect; tags describe the fitted curve by direction and shape.

SMILES | Potency | activity change, negative = growth inhibition
O=c1[nH]c(=S)[nH]c2c1C(c1ccc(F)cc1)OC(C1CCCCC1)C2 (stereo unspecified) | inconclusive: 29.1 µM [inhibitor, single point] | –
CCn1c(CC(=O)Nc2ccccc2)nnc1SCC(=O)N1CCOCC1 | – | inactive: 7.88%
O=C(c1ccccc1)C(Cn1cncn1)C(Sc1ccccc1)c1ccccc1 (stereo unspecified) | inconclusive: 18.4 µM [inhibitor, single point] | –
CCOC(=O)C1(CCc2ccccc2)CCN(Cc2cccc3nccnc23)CC1 | active: 20.6 µM | –
CC(C)CC(=O)N1CCC(N(CCc2ccccc2)Cc2ccccc2)CC1 | inconclusive: 23.1 µM [inhibitor, single point] | –
Cc1ccc(C(CNS(=O)(=O)c2ccc(F)cc2C)N2CCN(C)CC2)cc1 (stereo unspecified) | active: 18.4 µM | –
CCc1sc(C(=O)N2CCN(c3ccc(F)cc3)CC2)cc1C | inconclusive: 18.4 µM [inhibitor, single point] | –
CN(Cc1ccccc1)c1ccc(C(CC(N)=O)NC(=O)c2ccc(Br)cc2)cc1[N+](=O)[O-] (stereo unspecified) | inconclusive: 29.1 µM [inhibitor, single point] | –
O=C(C1Cc2ccccc2CN1C(=O)c1ccco1)N1CCN(c2ccccc2)CC1 (stereo unspecified) | inconclusive: 23.1 µM [inhibitor, single point] | –
CC1=C(C(=O)OCc2ccccc2)C(c2cccc([N+](=O)[O-])c2)NC(=O)N1C (stereo unspecified) | – | inactive: -9.26%
CCCCNc1nc2ccccc2n1CC(=O)Nc1ccc2c(c1)OCCO2 | inconclusive: 23.1 µM [inhibitor, single point] | –
CCCS(=O)(=O)c1ncc(Cl)c(C(=O)Nc2scc(-c3ccccc3)c2C(=O)OCC)n1 | active: 2.31 µM | –
COc1ccc(NC(=O)c2c([N+](=O)[O-])c(C(C)(C)C)nn2C)cc1 | inconclusive: 7.31 µM [inhibitor, partial curve] | –
CN(CC(=O)Nc1cccc(F)c1)C(=O)c1ccc(N2C(=O)c3ccccc3C2=O)cc1 | – | inconclusive: 2.86% [inhibitor]
CN(C)S(=O)(=O)c1ccc2nnn(OCC(=O)NC34CC5CC(CC(C5)C3)C4)c2c1 | inconclusive: 25.9 µM [inhibitor, single point] | –
CC(C)c1ccc(CNc2nc(-c3ccco3)nn2S(=O)(=O)c2ccc3ccccc3c2)cc1 | inconclusive: 29.1 µM [inhibitor, single point] | –
CCn1c(=O)c2c(nc(SCc3ccccn3)n2C)n(C)c1=O | – | inactive: -28.9%
O=C(CSc1nc(-c2ccccc2)cs1)NC(=O)NCc1ccco1 | – | inactive: -12%
COc1cccc(CN(Cc2ccccc2F)S(=O)(=O)c2ccc(S(=O)(=O)NCc3ccccc3)cc2)c1 | inconclusive: 2.59 µM [inhibitor, full curve, poor fit] | –
Cc1ccc(C)c(C(=O)N(C)CC(=O)Nc2ccccc2C(F)(F)F)c1 | – | inactive: 11%
COc1ccccc1CN1CCNC(=O)C1CC(=O)NCCCN1CCOCC1 (stereo unspecified) | – | inactive: -0.698%
CCCCN(CCCC)S(=O)(=O)c1ccc(SCC(=O)OCC)c([N+](=O)[O-])c1 | inconclusive: 23.1 µM [inhibitor, single point] | –
O=C(NCc1ccccc1)C1C(c2ccccc2)=Nc2ccccc2N1C(=O)c1cccnc1 (stereo unspecified) | – | inactive: 0.727%
CCN1C(=NCCCCO)N[C@@H](c2cccc(C(F)(F)F)c2)C(C(=O)OC)=C1C | inconclusive: 2.06 µM [inhibitor, partial curve] | –

SMILES | Potency | activity change, negative = growth inhibition
COCCNc1nc(NCCCN2CCCC2=O)c2sc(-c3ccccc3)cc2n1 | inconclusive: 20.6 µM [inhibitor, single point] | –
Cc1nc(SCC(=O)NCc2ccco2)c2c3c(sc2n1)CCCC3 | inconclusive: 29.1 µM [inhibitor, single point] | –
CCCCCn1c(SCCOCC)nc2c1c(=O)[nH]c(=O)n2C | inconclusive: 29.1 µM [inhibitor, single point] | –
CC(C)OC(=O)CSc1nnc2c(n1)[nH]c1ccc(F)cc12 | – | inactive: -8.31%
COc1cc2c(cc1OC)CN(C(=O)/C=C/c1ccc(F)cc1)CC2 | inconclusive: 18.4 µM [inhibitor, single point] | –
Cc1ccccc1-c1ccc2ncnc(NCc3cccs3)c2c1 | inconclusive: 29.1 µM [inhibitor, single point] | –
CNc1oc(C)nc1S(=O)(=O)c1ccc(C)cc1 | – | inactive: -0.8%
Cc1ccc(OCCCNC2CCCC2)cc1 | – | inactive: -16.2%
COc1ccc(-n2ncc(N(C)n3cccc3)c(Cl)c2=O)cc1 | inconclusive: 29.1 µM [inhibitor, single point] | –
CN(C)c1ccc2c(c1)C(=NO)c1ccccc1-2 | inconclusive: 29.1 µM [inhibitor, single point] | –
CCc1ccc(C2CC(c3ccccc3Cl)Nc3nc(N)nn32)cc1 (stereo unspecified) | – | inactive: -20.6%
CN(C)CCC[C@@]1(c2ccc(F)cc2)OCc2cc(C#N)ccc21 | inconclusive: 33.5 µM [inhibitor, single point] and inconclusive: 211 nM [inhibitor, full curve, poor fit] and inconclusive: 8.2 µM [inhibitor, partial curve] | –
Cc1cccc(C)c1-n1c(SCC(=O)NCc2ccco2)nc2ccccc2c1=O | inconclusive: 18.4 µM [inhibitor, single point] | –
O=S(=O)(c1ccccc1)c1nc(-c2ccc(Cl)cc2Cl)oc1N1CCCCCC1 | active: 23.1 µM | –
COc1cc2c(cc1OC)C1CCN3C(=O)CCC3N1CC2 (stereo unspecified) | inconclusive: 29.1 µM [inhibitor, single point] | –
Fc1ccc(F)c(NC(=S)NCCc2ccccc2)c1 | active: 16.4 µM | –
Cc1cccc(CNc2ccc(S(=O)(=O)N3CCCCC3)cc2)c1 | active: 20.6 µM | –
COC(=O)[C@]12CCCCC=C1N(Cc1ccc(Cl)cc1Cl)C(=O)[C@H](CC(=O)N1CCSCC1)C2 | inconclusive: 29.1 µM [inhibitor, single point] | –
NS(=O)(=O)c1ccc(CCNC(=O)CNC(=O)c2ccc(Oc3ccccc3)cc2)cc1 | – | inactive: 17%
CCOCCCNC(=O)/C(C#N)=C/c1ccc(C)o1 | – | inactive: -11.3%
N#CCC(=O)Nc1ccc(C(=O)NNC(=O)CCN2CCN(c3ccccc3)CC2)cc1 | – | inactive: -0.968%
Cc1ccc(-n2[nH]c3c4c(ccc3c2=O)C(=O)c2ccccc2C4=O)cc1 | – | inactive: -7.8%
Cc1csc2ncc(C(=O)NCc3ccccc3Cl)c(=O)n12 | inconclusive: 29.1 µM [inhibitor, single point] | –
CC(=O)N1CCN(C(=O)c2cc(S(=O)(=O)N3CCN(c4ccccc4)CC3)ccc2Cl)CC1 | inconclusive: 23.1 µM [inhibitor, single point] | –

SMILES | Potency | activity change, negative = growth inhibition
Cc1ccccc1OCC(=O)N/N=C/c1cc2ccccc2nc1Cl | active: 14.6 µM | –
C#CCOc1c(Cl)cc(/C=N/NC(N)=S)cc1OCC | inconclusive: 18.4 µM [inhibitor, single point] | –
COc1ccc(C2C3=C(CCCC3=O)N(CC(=O)O)C3=C2C(=O)CCC3)cc1Cl | – | inactive: -0.485%
COc1cccc(-c2cc(C(=O)Nc3cc(OC)c(OC)c(OC)c3)on2)c1 | active: 5.8 µM | –
O=C(OCC(O)COC(=O)c1cccnc1)c1cccnc1 | – | inactive: -3.96%
Clc1ccc(-c2cc(-c3nnc4n3CCCCC4)c3ccccc3n2)cc1 | inconclusive: 9.2 µM [inhibitor, partial curve] | –
CN(C)c1ccc(/C=C2\C(Cl)=Cc3ccccc32)cc1 | inconclusive: 35.5 µM [inhibitor, single point] | –
CCOC(=O)C1CCCN(C(=O)c2ccc3c(c2)OCCO3)C1 (stereo unspecified) | – | inactive: 0.638%
CC(=O)Nc1ccc(NC(=O)c2sc(-c3ccccc3)nc2C)cc1 | inconclusive: 18.4 µM [inhibitor, partial curve] | –
CN1C(=O)c2cccc(NC(=O)CCc3ccccc3)c2C1=O | – | inactive: 3.62%
O=C(NCC(F)(F)F)c1ccc2sc([C@H]3C[C@H](O)[C@@H](CO)O3)nc2c1 | inconclusive: 5.8 µM [inhibitor, full curve, poor fit] | –
O=C(CCCn1c(=O)c2cccn2c2cccnc21)NCc1ccc(F)cc1 | inconclusive: 18.4 µM [inhibitor, partial curve, poor fit] | –
CC(C)(C)n1cnc2cc(NCc3ccccc3O)ccc21 | inconclusive: 25.9 µM [inhibitor, single point] | –
OCCNc1nc(-c2ccccc2)nc2c1oc1ccccc12 | inconclusive: 29.1 µM [inhibitor, single point] | –
C[C@@]12C(=O)Nc3ccc(Br)cc3C(=O)N1[C@H]1c3cc(Cl)ccc3OC[C@@H]1[C@@H]2c1ccccc1 | inconclusive: 29.1 µM [inhibitor, single point] | –
CCn1c(O)c(/C=C2\C=Nc3ccccc32)sc1=Nc1ccccc1 | active: 10.3 µM | –
CC(C)(C)OC(=O)N1CCCN(C(c2ccnc3ccccc23)c2nnnn2-c2ccc3c(c2)OCCO3)CC1 (stereo unspecified) | inconclusive: 29.1 µM [inhibitor, single point] | –
Cc1cc(N)n2nc(-c3ccccc3)c(-c3ccccc3)c2n1 | active: 1.46 µM | –
CCOC(=O)c1ccc(NC(=O)C2CC3CCC2C3)cc1 (stereo unspecified) | inconclusive: 29.1 µM [inhibitor, single point] | –
CCOc1ccc(CNC2CCCCCCC2)cc1OC | – | inactive: -22.6%
CC(C)CC(=O)Nc1c2c(nn1-c1ccc(F)cc1)CS(=O)(=O)C2 | – | inactive: 31.4%
O=C(Nc1nnc(CCS(=O)(=O)c2ccc(Br)cc2)s1)c1ccc([N+](=O)[O-])cc1 | – | inactive: -7.75%
CCCC1OC2C[C@@H]3[C@H]4CCC5=CC(=O)C=C[C@]5(C)[C@H]4C(O)C[C@]3(C)[C@]2(C(=O)CO)O1 (stereo partly specified) | active: 11.2 µM | –
